Assay results from the supplement of paper PMC12632987.
In all, about 4,500 sequences were measured (“median log2 fold change of GCK-ALFA target abundance (FLAG IP / Myc IP barcode read proportion)”: median about 0.078, lowest 2% from about -0.6 on). The list shows a part of the results.

B1: GBRAP_184_5144 (protein)
chain: KVLRVYIEAKTVEEAIKQAKKAFEEAKAAGAKLSLFVELENATVEEVRELAEELKKLVEEYGLKDAQVTLVVEADEEEADKIIEEAEKEGIRVVVALEEE
B2: GBRAP_160_4554 (protein)
chain: SAEQEKAIKDAEEERDFVLEVVEEESNEEARIVAIGEFGSFLMEVFLSGKFSDELEDKLGEIDDELERELEEAVDGSKEEVREVIERHFDEAIELLKESE
B3: GBRAP_184_5293 (protein)
chain: KVVEVVIEAETEEEAIKQLKKAAEEAKKKGVKLKIYLYLKNVSVEGFKKIAELLKKLKEEGIIESATVHILDERSEEELDKLVEIADKAGVKLVVALSDE
B4: GBRAP_128_3243 (protein)
chain: SQEELLAEAKELIDKIVKADVEEARELTRELLELMKELDDEARDEVADYFIEKLKKLSAEKLEAVADVLRERRPELDPYTAALVAGVEIEALELAEEQEE
B5: GBRAP_153_3950 (protein)
chain: MEEEKKLLEEAKKLIKQIKKTGGDPELIKKFAELFTKLNEESRKELFKELESLPEELQKLIVKTLIKEAGVSPEEIIEYIVGTSEEFEAAVLEAIVEASK
B6: GBRAP_95_7044 (protein)
chain: DDLVLAAESDAEVLETAVDLGDEEAARRAALRLLELLLELPEDKVKLSLSVESVKVIIEVAKENFDKETAIEALEKLAKFLTDEEAKKVVEEAIKELKKE
B7: GBRAP_160_4326 (protein)
chain: SERVEKLKKEVEEEFEELKEMIEGESIEQRIVLFRGTFGEILMLLSEDESVSDELLDKVREIEDEAVKTLEENPDLTEEEIKELIDEAEEKVLKAIEELA
B8: GBRAP_186_5395 (protein)
chain: EIDEEEEDKILKELEEKYDIVIVVYLDSKKSLEEKIKIMENDTEAAEALAEETGKKVALVFRAVDDEENLKKLKEHVEKLNKEAEEKSGVKVELIGHKKK

target: GABARAP, O95166; experiment: median log2 fold change of GCK-ALFA target abundance (FLAG IP / Myc IP barcode read proportion) (log2 ratio); each designed protein is fused to an ALFA-tag nanobody in HEK293 cells to bring the named protein to FLAG-tagged glucokinase (GCK); Myc marks an untargeted standard; higher = target protein stabilised (more abundant); settings: target protein: 3xFLAG-MCP-GCK-ALFA reporter; HEK293 landing pad (RPLP)
Sequence (O95166 whole entry, the tested form may be a part): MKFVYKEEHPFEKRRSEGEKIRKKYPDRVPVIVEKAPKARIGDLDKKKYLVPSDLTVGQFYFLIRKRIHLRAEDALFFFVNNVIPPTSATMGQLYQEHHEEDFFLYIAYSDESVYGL
Outline: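 Sequencing of reverse-transcribed, amplified circular RNA barcodes from anti-FLAG and anti-Myc immunoprecipitates provided the readout for an ALFA-nanobody-fused binder library recombined into HEK293 landing-pad cells. Those cells were induced with 2 μg mL^−1 doxycycline, transfected with a plasmid expressing a FLAG-tagged target and a Myc-tagged standard, and lysed after 48 h. Target abundance is the per-binder median log2 ratio of FLAG to Myc barcode read proportions. Only barcodes at a proportion of ≥10^−7 in both replicates and binders with ≥3 barcodes per replicate were kept, with a 10^−6 pseudocount added before the two replicates were pooled.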

Which “median log2 fold change” value does the source give for B1 here?
The value was 0.112.

With B2 as the binder, how does the “median log2 fold change” value read?
The value was -0.237.

B3 was tested. Which “median log2 fold change” value did it give?
The value was 0.275.

For B4, which “median log2 fold change” value is on record?
The value was 0.147.

How did the “median log2 fold change” value turn out when B5 was run?
The value was 0.381.

With B6 as the binder, how does the “median log2 fold change” value read?
The value was 0.287.

For B7, which “median log2 fold change” value is on record?
The value was 0.00433.

For B8, which “median log2 fold change” value is on record?
The value was -0.133.
